Screen size: about 230,000 compounds; about 3,600 (1.6%) were called active. The inconclusive results got no clear call from the source; some entries with a clear call stand among them for comparison. Calls come from the whole dose curve; as a rule, active = well fitted inhibition curve with a large enough effect (not every such curve was filed as active); inconclusive = small, poorly fitted or top-dose-only effect, or another doubt; inactive = no such curve, though single readings can be large or run the other way. A potency beside an inconclusive call is a rough fit, not a confirmed value.
Each compound was assayed against Lysine-specific demethylase 4E (Homo sapiens) (UniProt B2RXH2) (assay: qHTS Assay for Inhibitors of Human Jumonji Domain Containing 2E (JMJD2E)). Conditions: JMJD2E catalytic domain, FDH-coupled NADH fluorescence (FDH is formaldehyde dehydrogenase); series mostly up to 57.1 µM; activity change, negative = inhibition: at the top concentration.
Note: nearly all actives have a fitted effect of over 50% in size.
Potency is the fitted concentration of half-maximal effect; tags give direction and shape of the fitted curve.
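Throughout, for activity change, negative = inhibition: 0% = wells with enzyme and -100% = buffer wells without enzyme.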

UniProt B2RXH2, sequence (B2RXH2 whole entry, looked up, the tested form may be a part): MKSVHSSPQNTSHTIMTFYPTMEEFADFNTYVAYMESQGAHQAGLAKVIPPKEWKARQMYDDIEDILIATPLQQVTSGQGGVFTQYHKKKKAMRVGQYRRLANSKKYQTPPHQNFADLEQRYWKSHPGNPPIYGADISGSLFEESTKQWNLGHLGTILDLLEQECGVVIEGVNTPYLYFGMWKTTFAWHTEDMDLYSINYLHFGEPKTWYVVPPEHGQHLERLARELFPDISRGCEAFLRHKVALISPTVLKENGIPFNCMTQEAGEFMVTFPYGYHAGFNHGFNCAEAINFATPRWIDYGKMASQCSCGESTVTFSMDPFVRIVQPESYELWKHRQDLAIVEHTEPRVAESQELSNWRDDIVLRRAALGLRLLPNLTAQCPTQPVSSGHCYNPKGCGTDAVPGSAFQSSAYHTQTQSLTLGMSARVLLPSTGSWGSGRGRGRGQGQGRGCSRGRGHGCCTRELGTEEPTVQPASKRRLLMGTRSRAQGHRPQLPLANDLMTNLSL

| SMILES | activity change, negative = inhibition | Potency |
| --- | --- | --- |
| N#Cc1c(SCC(=O)O)nc(N2CCOCC2)c2c1CCCC2 | inactive: -21.4% |  |
| CCOC(=O)c1ccc2nc3c(cc2c1)CCS3 |  | inconclusive: 39.8 µM [inhibitor, single point] |
| N#Cc1c(-c2ccc(Cl)cc2)ccn2nc(C3CCCCC3)nc12 | inactive: 2.49% |  |
| CCc1ccc(C(=O)NNC(=S)Nc2ccc(S(N)(=O)=O)cc2)s1 |  | inconclusive: 35.5 µM [inhibitor, single point] |
| CCN(CC)Cc1c(O)ccc2c(=O)c(Oc3ccccc3OC)coc12 |  | inconclusive: 25.1 µM [inhibitor, partial curve] |
| CCOC(=O)c1ccc(-n2c(N)c(C(=O)NCc3ccco3)sc2=S)cc1 |  | inconclusive: 39.8 µM [inhibitor, single point] |
| COc1ccc(Nc2nc(-c3c(C)nc4ncccn34)cs2)cc1 | inactive: -9.35% |  |
| CCCOc1cccc(-c2nnc(N)s2)c1 |  | inconclusive: 39.8 µM [inhibitor, single point] |
| Cc1cccc(C)c1OCC(O)CNC(C)C (centres undefined) | inactive: -1.41% |  |
| Cc1cc(N2CCN(c3ccccc3)CC2)nc(-c2ccccc2)n1 |  | inconclusive: 35.5 µM [inhibitor, single point] |
| O=C(NCCCO)/C(=C/c1ccco1)NC(=O)c1ccc(Br)o1 |  | inconclusive: 39.8 µM [inhibitor, single point] |
| CSc1ccc(CNc2nc3ccccc3n3cnnc23)cc1 |  | inconclusive: 35.5 µM [inhibitor, single point] |
| COc1cccc(-n2nnc3c(=O)n(CC(=O)NCC4CCCO4)cnc32)c1 (centres undefined) | inactive: -20.1% |  |
| Cc1nc2c(C(=O)NCc3ccc4c(c3)OCO4)c[nH]n2c(=O)c1Cc1ccccc1F |  | inconclusive: 25.1 µM [inhibitor, single point] |
| C1=CCC(CN2CCN(C3CCCCCC3)CC2)CC1 (centres undefined) |  | inconclusive: 35.5 µM [inhibitor, single point] |
| CCOC(=O)c1cc2c(ccn2C)n1Cc1cc(C)ccc1C |  | inconclusive: 39.8 µM [inhibitor, single point] |
| COc1ccc2nc(NC3=NC(C(=O)Nc4ccc(C)cc4)CC(=O)N3)nc(C)c2c1 (centres undefined) |  | inconclusive: 35.5 µM [inhibitor, single point] |
| CCn1cc(C(=O)O)c(=O)c2cc(F)c(N3CCN(S(=O)(=O)c4ccc(NC(=O)OC)cc4)CC3)cc21 |  | inconclusive: 35.5 µM [inhibitor, partial curve] |
| CCC(C)NC(=S)N(CCc1ccccc1)Cc1cc2cc(OC)c(OC)cc2[nH]c1=O (centres undefined) |  | inconclusive: 31.6 µM [inhibitor, partial curve] |
| COc1cc(CNC(C)c2ccccc2)cc(Cl)c1OCC(=O)Nc1ccccc1 (centres undefined) |  | inconclusive: 39.8 µM [inhibitor, single point] |
| CCOC(=O)N1CCC(N2Cc3cccc(C(=O)Nc4cc(F)ccc4F)c3C2=O)CC1 | inactive: 0.423% |  |
| COc1cccc2cc(C(=O)NC(C)C3CCCO3)c(=O)oc12 (centres undefined) |  | inconclusive: 31.6 µM [inhibitor, single point] |

| SMILES | activity change, negative = inhibition | Potency |
| --- | --- | --- |
| O=C(/C(=C/O)N=Nc1ccccc1Cl)c1ccccc1 | inactive: -1.56% |  |
| NC(=O)c1cc2c3ccccc3ccn2c1-c1ccccc1 |  | inconclusive: 22.4 µM [inhibitor, partial curve] |
| Cc1ccc(S(N)(=O)=O)cc1NC(=O)/C=C/c1ccc2c(c1)OCO2 |  | inconclusive: 25.1 µM [inhibitor, partial curve] |
| NNc1nc(N)c2c(n1)-c1ccccc1CC21CCCC1 |  | inconclusive: 20 µM [inhibitor, partial curve] |
| COc1ccc2cc(C(=O)NCc3ccccc3)c(=Nc3ccc(C(=O)O)cc3)oc2c1 |  | inconclusive: 35.5 µM [inhibitor, single point] |
| COc1ccccc1NC(=O)C1C2C=CC(O2)C1C(=O)O (centres undefined) |  | inconclusive: 22.4 µM [inhibitor, single point] |
| CC(NC(=O)C1CCCN1S(=O)(=O)c1ccc2c(c1)n(C)c(=O)c(=O)n2C)c1ccccc1 (centres undefined) |  | inconclusive: 35.5 µM [inhibitor, single point] |
| O=C(O)c1ccc(C(=O)O)c(C(=O)c2ccccc2)c1 |  | inconclusive: 39.8 µM [inhibitor, single point] |
| Cc1ccc(C2=NN(C(=O)COc3ncnc4ccccc34)C(c3ccco3)C2)cc1 (centres undefined) |  | inconclusive: 39.8 µM [inhibitor, single point] |
| c1cncc(-c2nnc(-c3cccnc3)nn2)c1 |  | inconclusive: 28.2 µM [inhibitor, single point] |
| O=C(C1CCCO1)N1CCN(c2ccccn2)CC1 (centres undefined) |  | inconclusive: 31.6 µM [inhibitor, partial curve] |
| CCOc1ccc2[nH]c(=O)c(CN(Cc3cccs3)Cc3nnnn3C(C)(C)C)cc2c1 |  | inconclusive: 35.5 µM [inhibitor, single point] |
| Cc1ccc2nc(-c3sc4nc(C)cc(C)c4c3N)[nH]c2c1 |  | inconclusive: 22.4 µM [inhibitor, partial curve] |
| Cc1ccc(CC(=S)N2CCOCC2)cc1 | inactive: -17.8% |  |
| COc1ccc(Nc2nc(NCc3ccco3)nc(N/N=C/c3ccccc3F)n2)cc1 | inactive: -27.9% |  |
| COc1ccc(C(CC(=O)N2CCOCC2)c2c(OC)cc(OC)c3ccc(=O)oc23)cc1 (centres undefined) |  | inconclusive: 31.6 µM [inhibitor, partial curve] |
| CN(C)c1nccc(N(Cc2ccccc2)Cc2ccccc2)c1C#N |  | inconclusive: 39.8 µM [inhibitor, single point] |
| Nc1ccc(-c2ccc(N)c(C(=O)O)c2)cc1C(=O)O |  | inconclusive: 25.1 µM [inhibitor, partial curve] |
| COCCNc1cc(C)c(C#N)c2nc3ccccc3n12 |  | inconclusive: 31.6 µM [inhibitor, partial curve] |
| CCn1c(Oc2ccc(F)cc2)nc2c1c(=O)n(C)c(=O)n2C | inactive: 11.2% |  |
| COCCN(C(=O)CC(C)(C)C)c1nnc(-c2cccnc2)s1 | inactive: -7.93% |  |
| CC/C(C)=N\N=C\c1c(O)n(CC)c2cc(C3=NNC(=O)CC3)ccc12 |  | inconclusive: 25.1 µM [inhibitor, single point] |
